Measurements from the supplement of paper PMC8285479.
Counter-ions that a name gives are not always drawn. ± gives the standard deviation of the averaged measurements. Whole data set: some 1,900 compounds, median “normalised cell viability (NPI; 0 = phenylarsine oxide control, 1 = DMSO control)” near 1, cut for the lowest 2% near 0.039. Some of the results follow.

System: NCI-H1944
Assay: normalised cell viability (NPI; 0 = phenylarsine oxide control, 1 = DMSO control) (fraction of DMSO control); NCI-H1944 is a non-small cell lung cancer line; higher = more viable cells (less compound toxicity)
Settings: 6 days
[1] = glucocorticoid arm: hydrocortisone 2.75 uM co-treatment, compound 1 µM
[2] = glucocorticoid arm: hydrocortisone 2.75 uM co-treatment, compound 5 µM
[3] = glucocorticoid arm: hydrocortisone 2.75 uM pre-treated 2 days and continued, compound 1 µM
[4] = glucocorticoid arm: hydrocortisone 2.75 uM pre-treated 2 days and continued, compound 5 µM
[5] = glucocorticoid arm: vehicle, compound 1 µM
[6] = glucocorticoid arm: vehicle, compound 5 µM
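Note: CTB read-out in 384-well plates, mean of triplicate wells, normalised per plate against 1 µM phenylarsine oxide and 0.1% DMSO, compounds added 24 h after seeding.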

Row | Compound | normalised cell viability [1] | normalised cell viability [2] | normalised cell viability [3] | normalised cell viability [4] | normalised cell viability [5] | normalised cell viability [6]
1 | Cc1cn[nH]c1 [4-Methylpyrazole hydrochloride] | 0.9937 ± 0.0021 | 0.999 ± 0.021 | 0.994 ± 0.0066 | 1.02 ± 0.099 | 0.983 ± 0.012 | 0.9903 ± 0.0085
2 | OCCN1CCN(CC/C=C2/c3ccccc3Sc3ccc(C(F)(F)F)cc32)CC1 [cis-(Z)-Flupenthixol dihydrochloride] | 0.978 ± 0.024 | 0.876 ± 0.036 | 0.992 ± 0.019 | 1.01 ± 0.021 | 1.017 ± 0.0058 | 1.004 ± 0.01
3 | C[C@@H](NCCCc1cccc(C(F)(F)F)c1)c1cccc2ccccc12 [Cinacalcet HCl] | 0.997 ± 0.022 | 0.9773 ± 0.0091 | 0.979 ± 0.016 | 0.984 ± 0.026 | 0.983 ± 0.011 | 0.9897 ± 0.0085
4 | CC[N+](C)(C)c1cccc(O)c1 [Edrophonium chloride] | 0.9987 ± 0.0023 | 0.988 ± 0.013 | 0.998 ± 0.013 | 1 ± 0.036 | 0.9933 ± 0.0042 | 0.997 ± 0.0052
5 | NCCc1c[nH]cn1 [Histamine 2HCl] | 1.01 | 0.988 ± 0.012 | 1 ± 0.011 | 0.988 ± 0.012 | 1.01 ± 0.011 | 1.01
6 | NCCc1c[nH]cn1 [Histamine dihydrochloride] | 0.9973 ± 0.0046 | 0.999 ± 0.021 | 0.987 ± 0.019 | 0.9843 ± 0.0065 | 0.9997 ± 0.0093 | 0.9953 ± 0.0055
7 | CN(C)CCC(c1ccc(Cl)cc1)c1ccccn1 (racemic) [(±)-Chlorpheniramine maleate] | 0.9833 ± 0.0025 | 0.985 ± 0.018 | 0.9843 ± 0.0078 | 0.991 ± 0.028 | 0.9727 ± 0.0021 | 0.987 ± 0.0069
8 | CC(C)(C)c1cnc(CSc2cnc(NC(=O)C3CCNCC3)s2)o1 | 0.0382 ± 0.0034 | 0.036 ± 0.0061 | 0.148 ± 0.013 | 0.133 ± 0.018 | 0.00695 ± 0.0037 | 0.00933 ± 0.00035
9 | O=C(O)CCCCCCCC(=O)O [Azelaic acid] | 0.9967 ± 0.0035 | 1.01 ± 0.011 | 0.993 ± 0.0089 | 1.015 ± 0.0071 | 0.986 ± 0.012 | 0.995 ± 0.013
10 | CC(=Cc1ccc(C(=O)O)cc1)c1ccc2c(c1)C(C)(C)CCC2(C)C | 0.949 ± 0.009 | 0.898 ± 0.013 | 0.976 ± 0.047 | 0.9253 ± 0.0023 | 1.003 ± 0.0058 | 0.981 ± 0.014
11 | COC(=O)Nc1nc2cc(C(=O)c3cccs3)ccc2[nH]1 [Nocodazole] | 0.303 ± 0.043 | 0.241 ± 0.033 | 0.9187 ± 0.0025 | 0.972 ± 0.077 | 0.0737 ± 0.0078 | 0.0638 ± 0.0075
12 | CC1(C)CCC(NC(=O)[C@@H](N)CCC(=O)O)CC1 | 0.979 ± 0.013 | 0.975 ± 0.016 | 0.999 ± 0.011 | 0.982 ± 0.046 | 0.9703 ± 0.0085 | 0.985 ± 0.012
13 | O=C(O)C1CCNCC1 [Isonipecotic acid] | 1.003 ± 0.0058 | 1.02 ± 0.017 | 1.01 ± 0.018 | 1.04 ± 0.07 | 0.9937 ± 0.0015 | 1.001 ± 0.0078
14 | CC(=O)OCC(=O)NCCCOc1cccc(CN2CCCCC2)c1 [Roxatidine Acetate HCl] | 1.01 ± 0.025 | 1.01 ± 0.02 | 1.01 ± 0.011 | 1.006 ± 0.0075 | 0.9977 ± 0.004 | 0.991 ± 0.011
15 | CC1(C)CCC=[N+]1[O-] [5,5-Dimethyl-1-pyrroline-N-oxide] | 1.003 ± 0.0058 | 0.986 ± 0.013 | 0.988 ± 0.0076 | 0.984 ± 0.023 | 0.9853 ± 0.0031 | 0.9857 ± 0.0067
16 | C=CC(N)CCC(=O)O (racemic) [(±)-gamma-Vinyl GABA] | 1.01 ± 0.012 | 0.998 ± 0.033 | 1.01 ± 0.02 | 1.01 ± 0.021 | 1.02 | 1.01
17 | Oc1ccc(C2CNCCc3c2cc(O)c(O)c3Cl)cc1 (configuration not stated) [Fenoldopam monohydrobromide] | 0.9943 ± 0.0074 | 0.995 ± 0.013 | 1.01 | 1 ± 0.0095 | 1.01 | 1
18 | N#C/C(=C\c1ccc(O)c(O)c1)C(=O)Nc1ccccc1 [Tyrphostin AG 494] | 0.9787 ± 0.0078 | 0.988 ± 0.035 | 1 ± 0.026 | 0.961 ± 0.03 | 0.9777 ± 0.0074 | 0.9967 ± 0.0032
19 | O=C1NC(=O)C(c2ccccc2[N+](=O)[O-])=C1Nc1ccc(O)c(Cl)c1 | 1.01 | – | – | 1.02 | – | –
20 | O=C1NC(=O)/C(=C/c2ccc3nccc(-c4ccncc4)c3c2)S1 | 0.697 ± 0.026 | 0.836 ± 0.011 | 0.73 ± 0.039 | 0.848 ± 0.026 | 0.886 ± 0.023 | 0.932 ± 0.027
21 | C[N+](C)(C)CCOP(=O)(O)OP(=O)([O-])OC[C@H]1O[C@@H](n2ccc(N)nc2=O)[C@H](O)[C@@H]1O [Citicoline sodium] | 1.003 ± 0.0058 | 1 ± 0.029 | 1.02 ± 0.011 | 1 ± 0.011 | 1.006 ± 0.0069 | 1.007 ± 0.0058
22 | CCN(CC)CCCC(C)Nc1ccnc2cc(Cl)ccc12 (configuration not stated) [Chloroquine diphosphate] | 1 ± 0.015 | 0.752 ± 0.026 | 1.001 ± 0.009 | 0.963 ± 0.04 | 0.9793 ± 0.0076 | 0.947 ± 0.013
23 | O=C(COc1cccc2c(=O)[nH]ccc12)c1ccccc1 | 0.9837 ± 0.005 | 1 ± 0.011 | 0.981 ± 0.01 | 0.912 ± 0.16 | 0.9897 ± 0.0067 | 0.9857 ± 0.0042
24 | CCNC(=O)[C@H]1O[C@@H](n2cnc3c(N)nc(NCCc4ccc(CCC(=O)O)cc4)nc32)[C@H](O)[C@@H]1O | 1 ± 0.015 | 0.984 ± 0.004 | 0.997 ± 0.0052 | 0.967 ± 0.011 | 0.989 ± 0.001 | 0.9883 ± 0.0072
25 | CNCCNS(=O)(=O)c1cccc2cnccc12 [H-8 dihydrochloride] | 0.9883 ± 0.0078 | 0.9753 ± 0.0091 | 0.9977 ± 0.004 | 1.04 ± 0.09 | 0.9783 ± 0.0059 | 0.993 ± 0.015
26 | C[C@](N)(Cc1ccc(O)cc1)C(=O)O [L-alpha-Methyl-p-tyrosine] | 1.003 ± 0.0058 | 1.03 ± 0.026 | 1.007 ± 0.0058 | 1.07 ± 0.081 | 0.989 ± 0.0044 | 0.998 ± 0.011
